This passage reports T/C results from PubChem BioAssay AID264 (DTP/NCI, 2004).

Records with an inconclusive call do not appear. Not every entry of the source has a single result; some have several. The list is limited to them. There may be further records. Values that stand side by side are repeats in other runs, samples, wells, individuals or studies.

This assay concerns nude mice, LX-1 lung xenograft intrarenal, tumor weight T/C. Briefly: NCI In Vivo Anticancer Drug Screen. Data for tumor model Human Lung LX-1 Xenograft (intrarenal inoculation) in NU/NU Swiss (nude) mice. As to conditions: endpoint: mean tumor weight change, higher = larger tumour. The method, then:
The antitumor activity of compounds was measured in mice bearing transplantable tumors. Survival or tumor size were measured and the results are expressed as the measurement made in the treated group (T) divided by the measurement made in the vehicle treated control group (C). The tumor model used in this assay is Human Lung LX-1 Xenograft (intrarenal inoculation) in NU/NU Swiss (nude) mice

The mark [1] stands for this setting: dose: 50.0 mg/kg/injection, schedule: Q04DX003 (sc), vehicle: Klucel (hydroxypropylcellulose) (HPC).
The mark [2] stands for this setting: dose: 100.0 mg/kg/injection, schedule: Q01DX010 (sc), vehicle: saline with Tween-80.
[3] abbreviates: dose: 300.0 mg/kg/injection, schedule: Q04DX003 (sc), vehicle: water.
Setting [4] is: dose: 600.0 mg/kg/injection, schedule: Q04DX003 (sc), vehicle: saline with Tween-80.
The mark [5] stands for this setting: dose: 200.0 mg/kg/injection, schedule: Q01DX010 (sc), vehicle: saline with Tween-80.
The mark [6] stands for this setting: dose: 400.0 mg/kg/injection, schedule: Q01DX010 (sc), vehicle: saline with Tween-80.

In the case of `Cc1cc(NCCCCCCCCNc2cc(C)nc3cc(N(C)C)ccc23)c2ccc(N(C)C)cc2n1`, under “dose: 75.0 mg/kg/injection, schedule: Q01DX010 (sc), vehicle: saline with Tween-80”, the T/C is 45 % of control and 104 % of control.

Regarding `CCC1(O)CC2CN(CCc3c([nH]c4ccccc34)C(C(=O)OC)(c3cc4c(cc3OC)N(C)C3C(O)(C(=O)NCCSSCCNC(=O)C5(O)C(O)C6(CC)C=CCN7CCC8(c9cc(C%10(C(=O)OC)CC%11CN(CCc%12c%10[nH]c%10ccccc%12%10)CC(O)(CC)C%11)c(OC)cc9N(C)C58)C76)C(O)C5(CC)C=CCN6CCC43C65)C2)C1` (stereo not given), the T/C was 4 % of control and 58 % of control (dose: 3.0 mg/kg/injection, schedule: Q04DX003 (sc), vehicle: saline); -40 % of control and 56 % of control (dose: 6.0 mg/kg/injection, schedule: Q04DX003 (sc), vehicle: saline).

Regarding `CC1OC(=O)C(C(C)C)NC(=O)C(C(C)C)OC(=O)C(C(C)C)NC(=O)C(C)OC(=O)C(C(C)C)NC(=O)C(C(C)C)OC(=O)C(C(C)C)NC(=O)C(C)OC(=O)C(C(C)C)NC(=O)C(C(C)C)OC(=O)C(C(C)C)NC1=O` (stereo not given), the T/C (dose: 10.0 mg/kg/injection, schedule: Q01DX010 (sc), vehicle: saline with Tween-80) is 60 % of control and 92 % of control.

Take `O=NN(CCCl)C(=O)NC1CCC(=O)NC1=O` (stereo not given): the T/C was 44 % of control and 71 % of control (dose: 1.56 mg/kg/injection, schedule: Q01DX010 (sc), vehicle: saline with Tween-80); -100 % of control and 14 % of control (dose: 6.25 mg/kg/injection, schedule: Q01DX010 (sc), vehicle: saline with Tween-80).

Regarding `CC(=O)O[C@@H]1CO[C@H]2O[C@H]3[C@@H](C(C=O)=C[C@H](O)[C@@H]4C5=C(C(C)C)CC[C@]5(C)CC[C@@]34C)[C@@]2(O)C1=O`, the T/C runs as follows: under setting [1], 85 % of control and 159 % of control; (dose: 200.0 mg/kg/injection, schedule: Q04DX003 (sc), vehicle: Klucel (hydroxypropylcellulose) (HPC)) 54 % of control and 87 % of control.

On to `CN1CCN(Cc2nc3cccc4c3c([n+]2[O-])-c2ccccc2-4)CC1`, for which the T/C under setting [2] was 110 % of control and 160 % of control.

As for `CCCCCCCCCCCCCCCC(=O)Nc1ccn(C2OC(CO)C(O)C2O)c(=O)n1` (stereo not given), the T/C is 7 % of control and 37 % of control under setting [3]; -34 % of control, 20 % of control, 39 % of control (dose: 600.0 mg/kg/injection, schedule: Q04DX003 (sc), vehicle: water); -24 % of control and 28 % of control (dose: 1200.0 mg/kg/injection, schedule: Q04DX003 (sc), vehicle: water).

`COc1cccc2c1C(=O)c1c(O)c3c(c(O)c1C2=O)C[C@@](O)(C(=O)CO)C[C@@H]3OC1CC(N)C(OC)C(C)O1` (stereo not given in full): the T/C (dose: 1.5 mg/kg/injection, schedule: Q01DX010 (sc), vehicle: saline) is listed as 10 % of control, 15 % of control, 124 % of control.

For `Nc1cc2[nH]cnc2c(=O)[nH]1`, the T/C (dose: 50.0 mg/kg/injection, schedule: Q01DX010 (sc), vehicle: saline) is 42 % of control and 94 % of control; the T/C (dose: 100.0 mg/kg/injection, schedule: Q01DX010 (sc), vehicle: saline) was 35 % of control and 79 % of control.

As to `O=C1NC2(CCCCC2)C(=O)N1CCN(CCCl)CCCl`, the T/C (dose: 12.0 mg/kg/injection, schedule: Q01DX010 (sc), vehicle: suspension in saline) was 55 % of control and 252 % of control; the T/C (dose: 24.0 mg/kg/injection, schedule: Q01DX010 (sc), vehicle: suspension in saline) is 18 % of control and 81 % of control; the T/C (dose: 48.0 mg/kg/injection, schedule: Q01DX010 (sc), vehicle: suspension in saline) was 28 % of control and 61 % of control.

Take `CCSC(=O)N1c2ccc(OC)cc2C=CC1C#N` (stereo not given): the T/C is, setting by setting: under setting [4], 51 % of control, 65 % of control, 153 % of control; (dose: 1200.0 mg/kg/injection, schedule: Q04DX003 (sc), vehicle: saline with Tween-80) 29 % of control, 41 % of control, 58 % of control.

On to `CN(C)N=Nc1ccccc1`, for which the T/C (dose: 25.0 mg/kg/injection, schedule: Q01DX010 (sc), vehicle: Klucel (hydroxypropylcellulose) (HPC)) is -91 % of control and 22 % of control.

For `C=CCNc1ccc(C)cc1`, the T/C (dose: 50.0 mg/kg/injection, schedule: Q01DX010 (sc), vehicle: Klucel (hydroxypropylcellulose) (HPC)) is 69 % of control and 105 % of control.

As to `CN(C)N=Nc1ccc(S(N)(=O)=O)cc1`, under “dose: 400.0 mg/kg/injection, schedule: Q01DX010 (sc), vehicle: Klucel (hydroxypropylcellulose) (HPC)”, the T/C is listed as -38 % of control, 2 % of control, 4 % of control.

Consider `CC1=C(/C=C/C(C)=C/C=C/C(C)=C/C=O)C(C)(C)CCC1`, for which the T/C under setting [4] is 53 % of control and 103 % of control.

In the case of `OCC1OC(n2cnc3c2NC=NC[C@H]3O)CC1O` (stereo not given in full), the T/C reads like this: (dose: 4.0 mg/kg/injection, schedule: Q01DX010 (sc), vehicle: water) 69 % of control, 84 % of control, 112 % of control; (dose: 8.0 mg/kg/injection, schedule: Q01DX010 (sc), vehicle: water) 18 % of control and 47 % of control.

For the compound `ClCC[N+]12CC[N+](CCCl)(CC1)C2`, the T/C runs as follows: under setting [2], 27 % of control and 96 % of control; under setting [5], 35 % of control and 115 % of control; under setting [3], 44 % of control and 113 % of control.

Consider `O=Cc1ccc(C(Cl)(Cl)Cl)cc1`, for which the T/C under setting [2] was 66 % of control and 223 % of control; the T/C under setting [6] was 89 % of control and 195 % of control.

For the compound `CCCCc1ccc2nc(NC(=O)OC)[nH]c2c1`, the T/C runs as follows: under setting [5], 65 % of control, 91 % of control, 99 % of control; under setting [6], 57 % of control, 80 % of control, 101 % of control; (dose: 800.0 mg/kg/injection, schedule: Q01DX010 (sc), vehicle: saline with Tween-80) 18 % of control, 38 % of control, 92 % of control.

As for `O=c1[nH]cc(F)c(=O)[nH]1`, the T/C (dose: 10.0 mg/kg/injection, schedule: Q01DX010 (sc), vehicle: saline) is 64 % of control and 171 % of control.

Consider `Oc1ccc(SCc2ccc(NCc3ccccc3)cc2)cc1`, for which the T/C under setting [5] is 67 % of control and 107 % of control.

`Nc1nc([Se])c2ncn(C3OC(CO)C(O)C3O)c2n1` (stereo not given): the T/C by setting is: (dose: 2.0 mg/kg/injection, schedule: Q01DX010 (sc), vehicle: saline) 65 % of control, 221 % of control, 283 % of control; (dose: 4.0 mg/kg/injection, schedule: Q01DX010 (sc), vehicle: saline) 93 % of control and 122 % of control; (dose: 8.0 mg/kg/injection, schedule: Q01DX010 (sc), vehicle: saline) 73 % of control, 159 % of control, 224 % of control.

`O=C(O)CCCc1ccc(N(CCCl)CCCl)cc1`: the T/C (dose: 4.0 mg/kg/injection, schedule: Q01DX010 (sc), vehicle: saline with Tween-80) was 25 % of control and 155 % of control; the T/C (dose: 8.0 mg/kg/injection, schedule: Q01DX010 (sc), vehicle: saline with Tween-80) is 5 % of control and 49 % of control.

In the case of `O=C(Nc1nncs1)c1ccncc1`, under setting [5], the T/C is 62 % of control and 92 % of control.

As for `CNC=O`, under “dose: 800.0 mg/kg/injection, schedule: Q01DX010 (sc), vehicle: saline”, the T/C was -50 % of control and -10 % of control.

As to `C/C(=N/NC(N)=S)c1ccc2ccccc2c1`, the T/C is 37 % of control and 196 % of control (dose: 50.0 mg/kg/injection, schedule: Q01DX010 (sc), vehicle: saline with Tween-80); 44 % of control and 119 % of control under setting [2].

As for `Cc1c(N)nc(C(CC(N)=O)NCC(N)C(N)=O)nc1C(=O)NC(C(=O)NC(C)C(O)C(C)C(=O)NC(C(=O)NCCc1nc(-c2nc(C(=O)NCCCNCCCc3ccccn3)cs2)cs1)C(C)O)C(OC1OC(CO)C(O)C(O)C1OC1OC(CO)C(O)C(OC(N)=O)C1O)c1cnc[nH]1` (stereo not given), the T/C is 3 % of control, 30 % of control, 94 % of control (dose: 6.0 mg/kg/injection, schedule: Q01DX010 (sc), vehicle: water) and -30 % of control, 37 % of control, 77 % of control (dose: 24.0 mg/kg/injection, schedule: Q01DX010 (sc), vehicle: water).

As to `COc1ccc2nc3cc(Cl)ccc3c(NCCNCCNCCNc3c4ccc(Cl)cc4nc4ccc(OC)cc34)c2c1`, the T/C under setting [2] is 78 % of control and 115 % of control.

Regarding `CCC1=C[C@H]2CN(CCc3c([nH]c4ccccc34)[C@@](C(=O)OC)(c3cc4c(cc3OC)N(C)[C@H]3[C@@](O)(C(=O)NC)[C@H](OC(C)=O)[C@]5(CC)C=CCN6CC[C@]43[C@@H]65)C2)C1`, the T/C (dose: 2.0 mg/kg/injection, schedule: Q04DX003 (sc), vehicle: water) was 10 % of control and 45 % of control.

Turning to `N#C[Se-].c1ccc([Te+](c2ccccc2)c2ccccc2)cc1`, under setting [1], the T/C is 60 % of control and 197 % of control.
